Values marked as one replicate rest on one cluster of the flow cell; about a third of the high ones do not repeat.
Tested on: ATP
Experiment: switch fluorescence ratio, 500 uM ATP over buffer (Cy3 cluster intensity, sum of 5 cycles each) (fold (ratio)); higher = stronger signal-on switching upon ATP binding; sequences stand for … in TCGTCGGCAGCGTCAGATGTGTATAAGAGACAGTTTTTTTTTTTTTTTTTTTTTTTTT…TC
Conditions: aptamer strand: ATP DNA aptamer (quencher-CACCTGGGGGAGTATTGCGGAGGAAGG + anchor), 100 nM annealed; ATP concentration: 500 uM; one replicate
Outline: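 Per cluster, summed Cy3 intensity from the target cycles was divided by that from the buffer cycles to give the fluorescence ratio, then averaged per switch-domain sequence. Clusters outside 100-1000 RFU were excluded. The Cy3-labelled switching-strand clusters, on a modified Illumina MiSeq flow-cell, were annealed to 100 nM quencher-labelled ATP aptamer and imaged in selection buffer, then after 15 min with 500 uM ATP at 22 °C, for five cycles with NaOH stripping and re-annealing between them.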
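Also: ATP exposure 15 min at 22 °C before imaging.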

| Sequence | switch fluorescence ratio |
| --- | --- |
| CGGTGGCCGG | 1.03 |
| TTATTCGCAT | 1.4 |
| GCCAGCGTCA | 1.02 |
| GGCAAAAGTC | 0.965 |
| CCATGGCGGA | 1.04 |
| ACGATACGTG | 1.12 |
| CAAACCAGGC | 1.74 |
| CCGGCCCATT | 1.09 |
| AGTGACTGCC | 1.14 |
| ATATACTCGC | 1.21 |
| TGAAGAGTTC | 1.07 |
| CTATGTATGA | 0.978 |
| TACAATGGT | 1.02 |
| CACGGTTGT | 1.02 |
| TCACTTCGAT | 0.982 |
| CGGTCTCTCT | 1 |
| AGTTTAAAAA | 0.942 |
| AAATAAGGAC | 0.994 |
| CGATCGTGAC | 1.5 |
| AGTTTAGGG | 1.08 |
| AGTACTGAGA | 1.04 |
| AATATGCTGT | 0.929 |

| Sequence | switch fluorescence ratio |
| --- | --- |
| ATCGACGCCA | 1.94 |
| CATGTATTGC | 0.973 |
| CATCACAGAG | 0.964 |
| ACGTGAGGAC | 1.06 |
| TTATATAGTT | 1.02 |
| GGCGAGCCAG | 1.04 |
| ATAGGATTAC | 1.17 |
| ACAAGGAGTT | 0.974 |
| ACGCTATTT | 1.2 |
| TTCGAGGAAA | 0.98 |
| TTAGGGAGGC | 1.03 |
| AAGCTAATAA | 1.19 |
| TTTTTTATC | 1 |
| GCTGTCAGAA | 0.974 |
| AGGGTGACGT | 1.01 |
| ATAAAAATAG | 1.01 |
| GTTCTTGTA | 0.989 |
| TCCGGGCTAA | 1 |
| ATCCCTGTTT | 0.959 |
| TCCAACTGGG | 1.01 |
| TACGTGGATG | 0.994 |
| GCGGCACCTG | 0.964 |

| Sequence | switch fluorescence ratio |
| --- | --- |
| GAGATTGAAC | 0.964 |
| CTAGGCCCGC | 1.03 |
| GCCGTAAAAC | 3.11 |
| CCCTTGAGGG | 1.07 |
| TCGTGATCTT | 1.01 |
| CGGTGGCGTG | 0.995 |
| TTAAACTCGT | 1.07 |
| CAATGTCCGT | 1 |
| TGGTTCGAAA | 1 |
| CGTCGTAGGC | 1.07 |
| TGTTCCGGTT | 0.979 |
| CGGTATCTTT | 0.993 |
| TCGCCTACGT | 1.02 |
| AGCCCCTTA | 0.997 |
| AAATCCGACG | 1.52 |
| TAAGCCGCCG | 1.06 |
| TACCGAAGGT | 1.15 |
| GGTCAAAATG | 0.974 |
| CAATAGTGCG | 1.05 |
| TCTTCGATTG | 0.928 |
| GGCCTACGCT | 1.58 |
| CTCGCTCCTA | 1 |

| Sequence | switch fluorescence ratio |
| --- | --- |
| ACAGACACTT | 1.08 |
| ATTAACGTTA | 1.05 |
| TTCGTCGGCT | 1.05 |
| AACACAGGGA | 1.07 |
| ATAGTTTGGG | 0.957 |
| AGTATAGCAT | 0.988 |
| TGAATTCAAC | 0.989 |
| ACTAGTCTCA | 1.03 |
| ACATTACGTC | 1.29 |
| CGACTTGGCC | 1.02 |
| AACTACATT | 0.989 |
| GGCGCTAGCT | 1.07 |
| TCTCGTTACA | 1 |
| CTCCTTTCGG | 1.07 |
| CTCGCGTCGT | 0.987 |
| AACGGGTTTC | 1.02 |
| ATACATATGG | 1.05 |
| GCTTACGGAA | 1.21 |
| ACCATTTCGT | 0.949 |
